In PubChem BioAssay AID1745845 (National Center for Advancing Translational Sciences (NCATS), 2022):
Out of some 360,000 compounds screened, about 2,600 (0.72%) were called active. This list was built around the results that the source calls inconclusive (neither active nor inactive); the mix of calls is not that of the screen. Calls follow the shape of the dose curve; as a rule, active = well fitted inhibition curve with a large enough effect; inconclusive = small, poorly fitted or top-dose-only effect; inactive = no such curve, though single readings can be large or run the other way. Potencies beside an inconclusive call are fits to weak or partial responses and may not hold up.

Experiment: Primary qHTS for Inhibitors of ATXN expression; also: nearly all actives have a fitted effect of over 55% in size
Conditions: HEK-293 ATXN2-luciferase reporter, luminescence, 24 h; activity change, negative = inhibition: at 57 µM (top of the series)
Outline: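 ATXN2-luciferase reporter cells (luciferase flanked by upstream and downstream ATXN2 gene portions) were treated 24 h at 37 °C with compounds at up to 57 uM. SteadyGlo luminescence gave expression; GF-AFC fluorescence gave viability.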
% is scaled to controls: 0 for no effect and ±100 for the full control effect; potency is read from the fitted curve at half-maximal effect; tags tell the direction and shape of the fitted curve.

Row | Compound | activity change, negative = inhibition | Potency
1 | NC(=O)C1CCN(C(=O)c2cccc(NC(=O)c3nsc4ccccc34)c2)CC1 | inactive: 27% | 
2 | CC(C)Oc1cc(F)ccc1-c1cc(C(=O)Nc2cccc(Cl)c2)[nH]n1 |  | inconclusive: 39.8 µM [inhibitor, single point]
3 | O=c1cc(-c2ccccc2Cl)oc2c(NS(=O)(=O)c3cc(Cl)cc(Cl)c3O)ccc(O)c12 |  | inconclusive: 25.1 µM [inhibitor, single point]
4 | COC(=O)N/N=C/c1cccc([N+](=O)[O-])c1 | inactive: 15.5% | 
5 | COc1ccccc1N(Cc1ccccc1)S(=O)(=O)c1cccc(C(=O)NC2CC(C)(C)NC(C)(C)C2)c1 |  | inconclusive: 25.1 µM [inhibitor, single point]
6 | COc1ccc(-c2noc(C3CCCN(C(=O)c4ccccc4OC)C3)n2)cc1 (stereo unspecified) |  | inconclusive: 22.4 µM [inhibitor, single point]
7 | COC(=O)Nc1ccc(SCC(=O)c2ccccc2)cc1 | inactive: 16.6% | 
8 | O=C(Nc1nnc(-c2cccs2)o1)c1ccc(S(=O)(=O)N2CCOCC2)cc1 |  | inconclusive: 21.2 µM [inhibitor, single point]
9 | Cc1ccc2nc(Cl)c3nnnn3c2c1 |  | inconclusive: 39.8 µM [inhibitor, single point]
10 | C/C(=N\NC(=O)CC1N=C(Cc2ccccc2)NNC1=O)c1ccc(Cl)cc1Cl (stereo unspecified) |  | inconclusive: 39.8 µM [inhibitor, single point]
11 | O=C1c2c(O)cc(O)cc2O[C@H](c2cc(O)c(O)c(O)c2)[C@H]1O |  | inconclusive: 15.3 µM [inhibitor, partial curve, poor fit]
12 | O=C(Nc1nc(-c2ccccc2)cs1)c1ccco1 | inactive: 35.8% | 
13 | CC(C)CN(CCCNC(=O)CN1N=C(c2ccc(Cl)cc2)CCC1=O)CC(C)C |  | inconclusive: 3.16 µM [inhibitor, partial curve, poor fit]
14 | Cc1cc(NCCCn2ccnc2)n2nc(C)c(-c3ccc(Cl)cc3)c2n1 |  | inconclusive: 14.1 µM [inhibitor, partial curve]
15 | COc1ccc(N2CCN(C(=O)COc3ccccc3)CC2)cc1 |  | inconclusive: 8.91 µM [inhibitor, single point]
16 | CCOC(=O)C(NC(=O)c1ccccc1Cl)(Nc1ccc(C)c(C)c1)C(F)(F)F (stereo unspecified) | inactive: 7.04% | 
17 | N=c1n(CC(=O)c2ccc([N+](=O)[O-])cc2)c2ccccc2n1Cc1ccccc1 |  | inconclusive: 31.6 µM [inhibitor, single point]
18 | O=C(Cn1cnc([N+](=O)[O-])n1)N/N=C/c1cc(Cl)ccc1O |  | inconclusive: 6.7 µM [inhibitor, partial curve, poor fit]
19 | CN1CCN(c2ccccc2NC(=O)c2ccc(OCc3ccccc3)cc2)CC1 |  | inconclusive: 35.5 µM [inhibitor, single point]
20 | CCOc1cc(/C=C/C(=O)c2ccc(OC)c(CN3CCOCC3)c2)cc(Br)c1O |  | inconclusive: 39.8 µM [inhibitor, single point]
21 | CCC(Oc1ccccc1F)C(=O)N1CCC(c2nc3ccccc3s2)CC1 (stereo unspecified) |  | inconclusive: 39.8 µM [inhibitor, single point]
22 | COc1ccc(Cl)cc1NC(=O)C1CCCN(c2ncnc3onc(C)c23)C1 (stereo unspecified) |  | inconclusive: 17.8 µM [inhibitor, partial curve]

Row | Compound | activity change, negative = inhibition | Potency
23 | Cc1ccc(NC(=O)c2cc(N3C(=O)C=CC3=O)ccc2Cl)cc1C |  | inconclusive: 31.6 µM [inhibitor, single point]
24 | C[C@]12c3[nH]c4ccc(Cl)cc4c3CCN1C(=O)[C@@H](CC(=O)NCC13CC4CC(CC(C4)C1)C3)C[C@@H]2C(=O)N1CCOCC1 |  | inconclusive: 39.8 µM [inhibitor, single point]
25 | COc1ccc(-c2nn(-c3ccccc3)cc2C(N)=O)cc1OC | inconclusive: -47.6% [inhibitor] | 
26 | Cc1nc2sc3c(c2c(=O)[nH]1)CCCC3 | inactive: 0.562% | 
27 | CN(CC1CCN(CCc2cccc(C(F)(F)F)c2)CC1)C(=O)c1ccc(F)cc1 | inactive: -12.3% | 
28 | COc1ccc(CN2CCC(Cc3ccccc3)CC2)cc1OC |  | inconclusive: 0.947 µM [inhibitor, full curve]
29 | CCN(CC(=O)Nc1cc(S(=O)(=O)N2CCOCC2)ccc1Cl)Cc1ccccc1 |  | inconclusive: 22.4 µM [inhibitor, partial curve, poor fit]
30 | CCc1ccccc1Nc1nn2c(=O)c3ccc(C(=O)NCc4ccccc4OC)cc3nc2s1 |  | inconclusive: 1.12 µM [inhibitor, full curve]
31 | Cc1cnn(C)c1C(=O)Nc1cc(Nc2ccc3c(C=Cc4ccccn4)n[nH]c3c2)ccc1F |  | inconclusive: 21.7 µM [inhibitor, partial curve]
32 | CN(C)CCCNC(=S)N1CCN(c2nc(-c3ccccc3)cs2)CC1 |  | inconclusive: 14.1 µM [inhibitor, partial curve, poor fit]
33 | CC(C)C(c1nnnn1C1CCCC1)N(C)C1CCCCC1 (stereo unspecified) | inactive: -15.2% | 
34 | O=C(CCCOC(=O)c1ccc(O)cc1O)c1ccc(Br)cc1 |  | inconclusive: 39.8 µM [inhibitor, partial curve, poor fit]
35 | CC(C)CCn1c(Sc2nc3ccccc3o2)nc2c1c(=O)[nH]c(=O)n2C |  | inconclusive: 39.8 µM [inhibitor, single point]
36 | CCN(CC)c1ccc2c(c1)oc(=O)c1c(Cl)cc(=O)oc12 |  | inconclusive: 31.6 µM [inhibitor, single point]
37 | Cn1cc(CN2CCC(C(=O)Nc3ccc(Oc4ccccc4F)cc3)CC2)cn1 | inactive: 0% | 
38 | COC(=O)c1[nH]c2ccc(Br)cc2c1NC(=O)CN1CCN(C2CCCCC2)CC1 |  | active: 17.8 µM
39 | O=C1NC(=O)C(=Cc2ccc3nccc(-c4ccncc4)c3c2)S1 |  | active: 6.85 µM
40 | COc1cccc(NC(=O)CN2C(=O)COc3ccc(C)cc32)c1 |  | inconclusive: 22.4 µM [inhibitor, partial curve, poor fit]
41 | CCO[C@H]1OC(C(=O)NCc2ccccc2)=C[C@@H](c2ccc(C(F)(F)F)cc2)[C@@H]1CCCO |  | inconclusive: 39.8 µM [inhibitor, single point]
42 | CNC(=O)CC1C(=O)N(Cc2ccccc2)C(=S)N1NC(=O)c1cccc(F)c1 (stereo unspecified) | inactive: 5.12% | 
43 | c1ccc(C[C@H]2CN=C(Nc3ccccc3)N2CCC2CCCC2)cc1 | inactive: -18.8% | 
44 | O=C(Nc1ccc(NC(=O)c2ccc(Cl)cc2Cl)cc1)c1ccc2c(c1)OCO2 | inconclusive: -49.3% [inhibitor] | 

Row | Compound | activity change, negative = inhibition | Potency
45 | CCn1cc(C(=O)N2CCN(c3cc(C)ccc3C)CC2)c(=O)c2cc(S(=O)(=O)N3CCCCC3)ccc21 | inactive: -10.4% | 
46 | CC1Cc2cc(/C=C3/SC(=S)NC3=O)ccc2O1 (stereo unspecified) | inactive: 0.622% | 
47 | Cc1cccc(N(Cc2ccccc2)C(=O)CCl)c1 |  | active: 0.752 µM
48 | COc1cccc(C(=O)Nc2nnc(-c3ccc(Cl)cc3)o2)c1 |  | inconclusive: 31.6 µM [inhibitor, single point]
49 | CCOC(=O)C1CCCN(c2nc3ccccc3nc2C(C#N)C(=O)OCCOC)C1 (stereo unspecified) | inactive: 42.2% | 
50 | O=C(NCc1ccc(F)cc1)C1C2C=CC3(CN(Cc4cccnc4)C(=O)C13)O2 (stereo unspecified) | inactive: -7.37% | 
51 | CC1CCCC(C)N1C(=O)Cn1cc(/C=C2/C(=O)Nc3ccccc32)c2ccccc21 (stereo unspecified) |  | inconclusive: 28.2 µM [inhibitor, partial curve, poor fit]
52 | N#CC1=C2N=C(N)c3ccccc3N2C2=C(C(=O)CCC2)C1c1cccc(Cl)c1 (stereo unspecified) |  | inconclusive: 31.6 µM [inhibitor, single point]
53 | CCCCNc1nc(=S)n(-c2ccccc2)c(C)c1C(C)=O |  | inconclusive: 39.8 µM [inhibitor, single point]
54 | Cc1ccc(Cl)cc1-n1ncc2c(NCCCc3ccccc3)ncnc21 |  | inconclusive: 28.2 µM [inhibitor, single point]
55 | Cc1ccc(C2(c3ccc(C)cc3)CC2C(=O)Nc2ccc([N+](=O)[O-])cc2O)cc1 (stereo unspecified) |  | active: 15.8 µM
56 | C[C@@H](C[C@@H](O)[C@H](O)C(C)(C)O)[C@@H]1CC[C@]2(C)C3=CC[C@H]4C(C)(C)C(=O)CC[C@]4(C)[C@H]3CC[C@@]12C |  | inconclusive: 35.5 µM [inhibitor, single point]
57 | CCCCOCCCNC(=O)C[C@@H]1C[C@@]2(C(=O)OCC)CCCC=C2N(Cc2ccc(Cl)cc2Cl)C1=O |  | inconclusive: 28.2 µM [inhibitor, single point]
58 | CCOc1ccc(N2C(=O)c3n[nH]c(-c4cccs4)c3C2c2cccc(F)c2)cc1 (stereo unspecified) |  | inconclusive: 35.5 µM [inhibitor, single point]
59 | Cc1ccc(CC2(C)C(=O)Nc3ccc(OC(F)(F)F)cc32)cc1 (stereo unspecified) |  | inconclusive: 39.8 µM [inhibitor, single point]
60 | CSc1ccc(-c2cccc3nncn23)cc1 | inactive: 11.4% | 
61 | COc1ccc(-c2ccoc2)cc1[C@H]1[C@H]2C=CC[C@@H](C)[C@@H]2C(=O)N1Cc1ccccc1 |  | inconclusive: 35.5 µM [inhibitor, single point]
62 | COc1ccc(CC(N)c2csc(NC(=O)Nc3ccc(C(C)C)cc3)n2)cc1 (stereo unspecified) |  | inconclusive: 39.8 µM [inhibitor, single point]
63 | O=C(C1CCCCC1)N1C[C@@H](O)[C@H](n2cc(C3CC3)nn2)C[C@@H]1c1ccccc1 | inactive: 7.49% | 
64 | CCOC(=O)c1sc(N2C(=O)c3oc4ccc(C)cc4c(=O)c3C2c2ccccc2F)nc1C (stereo unspecified) | inactive: -7.79% | 
65 | COc1ccc(-c2nc(NCCN(C)C)nc3ccsc23)c(C)c1 | inactive: 6.6% | 
66 | CCc1ccc(NC(=O)C2=CC(c3ccc(OC)c(OC)c3)=NS(=O)(=O)N2C)cc1 |  | inconclusive: 21.2 µM [inhibitor, partial curve, poor fit]
